Assay results published in patent US20250243260A1 (ALPINE IMMUNE SCIENCES, published 2025).
Numbering of substitutions follows the chain as printed. Names and notes keep the numbering of the source.

B1: CD80_172 variant CD80 IgV-Fc (K9R, E10S, V11Y, M42L, F59M, V68M, L85E) (Fc fusion)
chain: VIHVTKEVRSYATLSCGHNVSVEELAQTRIYWQKEKKMVLTLMSGDMNIWPEYKNRTIMDITNNLSIMILALRPSDEGTYECVVEKYEKDAFKREHLAEVTLSVKADGSGGGGS[omitted - human IgG4 Fc with S228P (EU numbers)]
B2: CD80_230 variant CD80 IgV-Fc (E10G, Q27F, D46N, A71G, D90G) (Fc fusion)
chain: VIHVTKEVKGVATLSCGHNVSVEELAFTRIYWQKEKKMVLTMMSGNMNIWPEYKNRTIFDITNNLSIVILGLRPSDEGTYECVVLKYEKGAFKREHLAEVTLSVKADGSGGGGS[omitted - human IgG4 Fc with S228P (EU numbers)]
B3: CD80_234 variant CD80 IgV-Fc (V11Y, T28Y, M47L, V68L) (Fc fusion)
chain: B1 chain with R9K, S10E, T28Y, L42M, M47L, M59F, M68L, E85L
B4: CD80_240 variant CD80 IgV-Fc (V11Y, T28Y, D46E, M47V, V68M) (Fc fusion)
chain: B1 chain with R9K, S10E, T28Y, L42M, D46E, M47V, M59F, E85L
B5: CD80_243 variant CD80 IgV-Fc (V11Y, M47L, A71G, Y87R) (Fc fusion)
chain: B2 chain with G10E, V11Y, F27Q, N46D, M47L, Y87R, G90D
B6: CD80_238 variant CD80 IgV-Fc (V11Y, D46E, M47V, V68M) (Fc fusion)
chain: B1 chain with R9K, S10E, L42M, D46E, M47V, M59F, E85L
B7: CD80_236 variant CD80 IgV-Fc (V11Y, T28Y, M47L, A71G) (Fc fusion)
chain: B2 chain with G10E, V11Y, F27Q, T28Y, N46D, M47L, G90D
B8: CD80_177 variant CD80 IgV-Fc (E10G, V11W, V22S, T28P, A71G, E81K, Y87R) (Fc fusion)
chain: B2 chain with V11W, V22S, F27Q, T28P, N46D, E81K, Y87R, G90D
B9: CD80_231 variant CD80 IgV-Fc (V11W, T28Y, M47L) (Fc fusion)
chain: B2 chain with G10E, V11W, F27Q, T28Y, N46D, M47L, G71A, G90D
B10: CD80_169 variant CD80 IgV-Fc (E10G, E35G, D46E, M47V, V68M) (Fc fusion)
chain: B2 chain with F27Q, E35G, N46E, M47V, V68M, G71A, G90D
B11: CD80_242 variant CD80 IgV-Fc (V11F, T28Y, M47L, T62S) (Fc fusion)
chain: B2 chain with G10E, V11F, F27Q, T28Y, N46D, M47L, T62S, G71A, G90D
B12: CD80_241 variant CD80 IgV-Fc (E10S, V11F, T28Y, M47L) (Fc fusion)
chain: B2 chain with G10S, V11F, F27Q, T28Y, N46D, M47L, G71A, G90D
B13: CD80_233 variant CD80 IgV-Fc (V11Y, T28Y, M47L, V68M) (Fc fusion)
chain: B1 chain with R9K, S10E, T28Y, L42M, M47L, M59F, E85L
B14: CD80_244 variant CD80 IgV-Fc (V11Y, T28Y, M47L, Y87R) (Fc fusion)
chain: B2 chain with G10E, V11Y, F27Q, T28Y, N46D, M47L, G71A, Y87R, G90D
B15: CD80_168 variant CD80 IgV-Fc (K9N, E10G, N63S, L85E) (Fc fusion)
chain: B2 chain with K9N, F27Q, N46D, N63S, G71A, L85E, G90D
B16: CD80_235 variant CD80 IgV-Fc (V11Y, M47L, A71G) (Fc fusion)
chain: B2 chain with G10E, V11Y, F27Q, N46D, M47L, G90D
B17: CD80_179 variant CD80 IgV-Fc (H18F, M42G, F59Y, V68N) (Fc fusion)
chain: B1 chain with R9K, S10E, Y11V, H18F, L42G, M59Y, M68N, E85L
B18: CD80_232 variant CD80 IgV-Fc (V11F, T28Y, M47L) (Fc fusion)
chain: B2 chain with G10E, V11F, F27Q, T28Y, N46D, M47L, G71A, G90D
B19: CD80_239 variant CD80 IgV-Fc (V11Y, T28Y, D46E, M47V) (Fc fusion)
chain: B2 chain with G10E, V11Y, F27Q, T28Y, N46E, M47V, G71A, G90D
B20: CD80_176 variant CD80 IgV-Fc (E10R, H18Y, A26G, E35D, V68L, L85E) (Fc fusion)
chain: B1 chain with R9K, S10R, Y11V, H18Y, A26G, E35D, L42M, M59F, M68L
B21: CD80_170 variant CD80 IgV-Fc (K9N, E10G, E35G, D46E, M47V, V68M) (Fc fusion)
chain: B2 chain with K9N, F27Q, E35G, N46E, M47V, V68M, G71A, G90D
B22: CD80_171 variant CD80 IgV-Fc (E7S, H18I, V20L, A26K, M47L, A71N) (Fc fusion)
chain: B2 chain with E7S, G10E, H18I, V20L, A26K, F27Q, N46D, M47L, G71N, G90D
B23: CD80_178 variant CD80 IgV-Fc (V11Y, T28Y, L85E, Y87I) (Fc fusion)
chain: B1 chain with R9K, S10E, T28Y, L42M, M59F, M68V, Y87I
B24: CD80_175 variant CD80 IgV-Fc (E10S, V11F, T28Y, M47L, T62S) (Fc fusion)
chain: B2 chain with G10S, V11F, F27Q, T28Y, N46D, M47L, T62S, G71A, G90D

These binders were tested against CD28 on Jurkat/IL2-reporter cells (UniProt P10747 19-220, limits assumed) (assay: cell-based or functional assay).

Row | Binder | Fold Increase over WT at 50 nM | Rel. Luminescence Units (RLU) 2 nM | Rel. Luminescence Units (RLU) 10 nM | Rel. Luminescence Units (RLU) 50 nM | Rel. Luminescence Units (RLU) 250 nM
1 | B1 | 1.34 fold | 2250 RLU | 2510 RLU | 3270 RLU | 4890 RLU
2 | B2 | 2.12 fold | 2450 RLU | 3240 RLU | 5180 RLU | 7780 RLU
3 | B3 | 5.04 fold | 6240 RLU | 10400 RLU | 12300 RLU | 13600 RLU
4 | B4 | 4.52 fold | 6540 RLU | 8450 RLU | 11000 RLU | 12400 RLU
5 | B5 | 3.11 fold | 2330 RLU | 3520 RLU | 7590 RLU | 10700 RLU
6 | B6 | 4.02 fold | 2840 RLU | 4220 RLU | 9820 RLU | 13100 RLU
7 | B7 | 5.48 fold | 3790 RLU | 8250 RLU | 13400 RLU | 16600 RLU
8 | B8 | 1.42 fold | 2840 RLU | 2940 RLU | 3450 RLU | 7300 RLU
9 | B9 | 1.12 fold | 2450 RLU | 2450 RLU | 2730 RLU | 3260 RLU
10 | B10 | 3.35 fold | 3890 RLU | 5400 RLU | 8170 RLU | 13100 RLU
11 | B11 | 2.38 fold | 3110 RLU | 4230 RLU | 5820 RLU | 8850 RLU
12 | B12 | 3.13 fold | 3330 RLU | 4960 RLU | 7640 RLU | 10500 RLU
13 | B13 | 4.74 fold | 9610 RLU | 10100 RLU | 11600 RLU | 12900 RLU
14 | B14 | 3.09 fold | 2320 RLU | 3000 RLU | 7540 RLU | 11500 RLU
15 | B15 | 1.09 fold | 2260 RLU | 2660 RLU | 2650 RLU | 2520 RLU
16 | B16 | 3.5 fold | 3380 RLU | 4010 RLU | 8540 RLU | 12600 RLU
17 | B17 | 1.09 fold | 2950 RLU | 2620 RLU | 2660 RLU | 3250 RLU
18 | B18 | 1.7 fold | 2710 RLU | 3100 RLU | 4160 RLU | 5960 RLU
19 | B19 | 1.7 fold | 2080 RLU | 2350 RLU | 4140 RLU | 8550 RLU
20 | B20 | 1.32 fold | 2720 RLU | 2940 RLU | 3230 RLU | 4840 RLU
21 | B21 | 2.53 fold | 2980 RLU | 3900 RLU | 6180 RLU | 10400 RLU
22 | B22 | 0.99 fold | 2100 RLU | 2370 RLU | 2410 RLU | 3280 RLU
23 | B23 | 1.23 fold | 3480 RLU | 3000 RLU | 3000 RLU | 2760 RLU
24 | B24 | 5.27 fold | 7510 RLU | 10500 RLU | 12800 RLU | 16000 RLU
